Test results from the supplement of paper PMC8728848.
This is one part of the list.

Experiments:
Experiment in all cases: glycan array binding signal (z-score within array); higher = stronger binding
Details in all cases: glycan notation: IUPAC condensed, linker removed; mutation: A146Q
[1] = target: Gal(b1-3)GlcNAc(b1-2)Man(a1-3)[Gal(b1-3)GlcNAc(b1-2)Man(a1-6)]Man(b1-4)GlcNAc(b1-4)[Fuc(a1-6)]GlcNAc
Method in brief: (§1)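 Negative Z-scores can be read as non-binding. The Z-score is calculated within each array and then averaged across arrays of one protein sequence at different concentrations or buffers and across linkers. Arrays, 3228 in all, were curated from the Consortium for Functional Glycomics database and kept only where the protein sequence was available.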

[2] = target: Gal(b1-3)GlcNAc(b1-3)Gal(b1-3)GlcNAc
Method in brief: as §1

[3] = target: Gal(b1-3)GlcNAc(b1-3)Gal(b1-4)Glc
Method in brief: as §1

[4] = target: Gal(b1-3)GlcNAc(b1-3)Gal(b1-4)GlcNAc
Method in brief: as §1

[5] = target: Gal(b1-3)GlcNAc(b1-3)Gal(b1-4)GlcNAc(b1-6)[Gal(b1-3)GlcNAc(b1-3)]Gal(b1-4)Glc
Method in brief: as §1

[6] = target: Gal(b1-3)GlcNAc(b1-3)Gal(b1-4)[Fuc(a1-3)]GlcNAc(b1-6)[Gal(b1-3)GlcNAc(b1-3)]Gal(b1-4)Glc
Method in brief: as §1

[7] = target: Gal(b1-3)GlcNAc(b1-3)GalNAc
Method in brief: as §1

[8] = target: Gal(b1-3)GlcNAc(b1-6)Gal(b1-4)GlcNAc
Method in brief: as §1

[9] = target: Gal(b1-3)[Fuc(a1-4)]GlcNAc
Method in brief: as §1

[10] = target: Gal(b1-3)[Fuc(a1-4)]GlcNAc(b1-2)Man(a1-3)[Gal(b1-3)[Fuc(a1-4)]GlcNAc(b1-2)Man(a1-6)]Man(b1-4)GlcNAc(b1-4)GlcNAc
Method in brief: as §1

[11] = target: Gal(b1-3)[Fuc(a1-4)]GlcNAc(b1-2)Man(a1-3)[Gal(b1-3)[Fuc(a1-4)]GlcNAc(b1-2)Man(a1-6)]Man(b1-4)GlcNAc(b1-4)[Fuc(a1-6)]GlcNAc
Method in brief: as §1

[12] = target: Gal(b1-3)[Fuc(a1-4)]GlcNAc(b1-3)Gal(b1-3)[Fuc(a1-4)]GlcNAc
Method in brief: as §1

[13] = target: Gal(b1-3)[Fuc(a1-4)]GlcNAc(b1-3)Gal(b1-4)GlcNAc
Method in brief: as §1

[14] = target: Gal(b1-3)[Fuc(a1-4)]GlcNAc(b1-3)Gal(b1-4)[Fuc(a1-3)]GlcNAc
Method in brief: as §1

[15] = target: Gal(b1-3)[GlcNAc(b1-6)]GalNAc
Method in brief: as §1

[16] = target: Gal(b1-3)[Neu5Ac(a2-6)]GalNAc
Method in brief: as §1

[17] = target: Gal(b1-3)[Neu5Ac(a2-6)]GlcNAc(b1-6)Gal(b1-4)Glc
Method in brief: as §1

[18] = target: Gal(b1-3)[Neu5Ac(b2-6)]GalNAc
Method in brief: as §1

[19] = target: Gal(b1-4)GalNAc(a1-3)[Fuc(a1-2)]Gal(b1-4)GlcNAc
Method in brief: as §1

[20] = target: Gal(b1-4)GalNAc(b1-3)[Fuc(a1-2)]Gal(b1-4)GlcNAc
Method in brief: as §1

[21] = target: Gal(b1-4)Glc
Method in brief: as §1

[22] = target: Gal(b1-4)Glc6S
Method in brief: as §1

[23] = target: Gal(b1-4)GlcNAc
Method in brief: as §1

[24] = target: Gal(b1-4)GlcNAc(a1-6)Gal(b1-4)GlcNAc
Method in brief: as §1

[25] = target: Gal(b1-4)GlcNAc(b1-2)Man(a1-3)Man(b1-4)GlcNAc(b1-4)GlcNAc
Method in brief: as §1

[26] = target: Gal(b1-4)GlcNAc(b1-2)Man(a1-3)[Gal(b1-4)GlcNAc(b1-2)Man(a1-6)]Man(b1-4)GlcNAc(b1-4)GlcNAc
Method in brief: as §1

[27] = target: Gal(b1-4)GlcNAc(b1-2)Man(a1-3)[Gal(b1-4)GlcNAc(b1-2)Man(a1-6)]Man(b1-4)GlcNAc(b1-4)[Fuc(a1-6)]GlcNAc
Method in brief: as §1

[28] = target: Gal(b1-4)GlcNAc(b1-2)Man(a1-3)[GlcNAc(b1-2)Man(a1-6)]Man(b1-4)GlcNAc(b1-4)GlcNAc
Method in brief: as §1

[29] = target: Gal(b1-4)GlcNAc(b1-2)Man(a1-3)[Man(a1-6)]Man(b1-4)GlcNAc(b1-4)GlcNAc
Method in brief: as §1

[30] = target: Gal(b1-4)GlcNAc(b1-2)Man(a1-6)Man(b1-4)GlcNAc(b1-4)GlcNAc
Method in brief: as §1

[31] = target: Gal(b1-4)GlcNAc(b1-2)Man(a1-6)[GlcNAc(b1-2)Man(a1-3)]Man(b1-4)GlcNAc(b1-4)GlcNAc
Method in brief: as §1

[32] = target: Gal(b1-4)GlcNAc(b1-2)Man(a1-6)[Man(a1-3)]Man(b1-4)GlcNAc(b1-4)GlcNAc
Method in brief: as §1

[33] = target: Gal(b1-4)GlcNAc(b1-2)[Gal(b1-4)GlcNAc(b1-4)]Man(a1-3)[Gal(b1-4)GlcNAc(b1-2)Man(a1-6)]Man(b1-4)GlcNAc(b1-4)GlcNAc
Method in brief: as §1

[34] = target: Gal(b1-4)GlcNAc(b1-2)[Gal(b1-4)GlcNAc(b1-4)]Man(a1-3)[Gal(b1-4)GlcNAc(b1-2)[Gal(b1-4)GlcNAc(b1-6)]Man(a1-6)]Man(b1-4)GlcNAc(b1-4)GlcNAc
Method in brief: as §1

[35] = target: Gal(b1-4)GlcNAc(b1-3)Gal(b1-3)GlcNAc
Method in brief: as §1

[36] = target: Gal(b1-4)GlcNAc(b1-3)Gal(b1-4)Glc
Method in brief: as §1

[37] = target: Gal(b1-4)GlcNAc(b1-3)Gal(b1-4)GlcNAc
Method in brief: as §1

[38] = target: Gal(b1-4)GlcNAc(b1-3)Gal(b1-4)GlcNAc(b1-3)Gal(b1-4)GlcNAc
Method in brief: as §1

B1: Gal 3 (Homo sapiens), P17931 (protein)
chain: MADNFSLHDALSGSGNPNPQGWPGAWGNQPAGAGGYPGASYPGAYPGQAPPGAYPGQAPPGAYHGAPGAYPGAPAPGVYPGPPSGPGAYPSSGQPSAPGAYPATGPYGAPAGPLIVPYNLPLPGGVVPRMLITILGTVKPNANRIQLDFQRGNDVAFHFNPRFNENNRRVIVCNTKLDNNWGREERQSVFPFESGKPFKIQVLVEPDHFKVAVNDAHLLQYNHRVKKLNEISKLGISGDIDLTSASYTMI
Q: B1 was tested. Which “glycan array binding signal (z-score)” value [1] did it give?
A: Its value is -0.198.

Q: What about the “glycan array binding signal (z-score)” value [2] of the same binder?
A: The value was -0.136.

Q: What about the “glycan array binding signal (z-score)” value [3] of the same binder?
A: The value was -0.193.

Q: What about the “glycan array binding signal (z-score)” value [4] of the same binder?
A: The value was -0.186.

Q: And the “glycan array binding signal (z-score)” value [5]?
A: Its value is -0.168.

Q: And the “glycan array binding signal (z-score)” value [6]?
A: The value was -0.009.

Q: And the “glycan array binding signal (z-score)” value [7]?
A: Its value is -0.19.

Q: What about the “glycan array binding signal (z-score)” value [8] of the same binder?
A: Its value is -0.196.

Q: What about the “glycan array binding signal (z-score)” value [9] of the same binder?
A: The value was -0.196.

Q: What about the “glycan array binding signal (z-score)” value [10] of the same binder?
A: Its value is -0.197.

Q: What about the “glycan array binding signal (z-score)” value [11] of the same binder?
A: The value was -0.197.

Q: And the “glycan array binding signal (z-score)” value [12]?
A: Its value is -0.193.

Q: What about the “glycan array binding signal (z-score)” value [13] of the same binder?
A: Its value is -0.182.

Q: And the “glycan array binding signal (z-score)” value [14]?
A: Its value is -0.169.

Q: What about the “glycan array binding signal (z-score)” value [15] of the same binder?
A: The value was -0.141.

Q: What about the “glycan array binding signal (z-score)” value [16] of the same binder?
A: Its value is -0.195.

Q: And the “glycan array binding signal (z-score)” value [17]?
A: The value was -0.193.

Q: What about the “glycan array binding signal (z-score)” value [18] of the same binder?
A: The value was -0.19.

Q: What about the “glycan array binding signal (z-score)” value [19] of the same binder?
A: Its value is -0.188.

Q: And the “glycan array binding signal (z-score)” value [20]?
A: Its value is -0.202.

Q: What about the “glycan array binding signal (z-score)” value [21] of the same binder?
A: The value was -0.197.

Q: What about the “glycan array binding signal (z-score)” value [22] of the same binder?
A: Its value is -0.195.

Q: And the “glycan array binding signal (z-score)” value [23]?
A: Its value is -0.196.

Q: What about the “glycan array binding signal (z-score)” value [24] of the same binder?
A: Its value is -0.188.

Q: And the “glycan array binding signal (z-score)” value [25]?
A: Its value is -0.083.

Q: And the “glycan array binding signal (z-score)” value [26]?
A: The value was 0.03.

Q: What about the “glycan array binding signal (z-score)” value [27] of the same binder?
A: Its value is -0.2.

Q: And the “glycan array binding signal (z-score)” value [28]?
A: The value was -0.184.

Q: And the “glycan array binding signal (z-score)” value [29]?
A: Its value is -0.181.

Q: And the “glycan array binding signal (z-score)” value [30]?
A: Its value is -0.181.

Q: What about the “glycan array binding signal (z-score)” value [31] of the same binder?
A: The value was -0.142.

Q: And the “glycan array binding signal (z-score)” value [32]?
A: The value was -0.196.

Q: What about the “glycan array binding signal (z-score)” value [33] of the same binder?
A: Its value is -0.051.

Q: What about the “glycan array binding signal (z-score)” value [34] of the same binder?
A: The value was 0.085.

Q: What about the “glycan array binding signal (z-score)” value [35] of the same binder?
A: Its value is 1.28.

Q: What about the “glycan array binding signal (z-score)” value [36] of the same binder?
A: The value was -0.035.

Q: What about the “glycan array binding signal (z-score)” value [37] of the same binder?
A: The value was 1.03.

Q: And the “glycan array binding signal (z-score)” value [38]?
A: Its value is 3.5.
